By IC50 is meant the dose at which the fit gives 50% viability; where the fit passes the top or lowest dose, that dose stands as a limit. The AUC spans the tested range (256-fold, ending at the top dose) of the same fit; values near 1 show little effect. A top dose marked as inferred is not printed in the source and was worked back from the curve model.

Compound in the test: CC1=C(C(=O)Nc2cc3cn[nH]c3cc2F)C(c2ccc(C(F)(F)F)cc2)CC(=O)N1 [GSK429286A]
Put plainly: Viability of human cancer cell lines after 72 h of drug (GDSC screen). The settings on record: top dose inferred. On the procedure: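 Human cancer cell lines in 384-well plates, medium with 10% serum, drug for 72 h over a 256-fold dose range (nine 2-fold or five 4-fold steps up to the top dose). Adherent lines were fixed and stained with the nucleic acid dye Syto60, suspension lines read with resazurin; signal relative to control wells, capped at 0 and 100%. One two-parameter sigmoid per drug and line, fitted in a mixed model over all curves with the slope shared within a line.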
Usually IC50 stands for the concentration at which inhibition is half-maximal. As for “KP-1N (pancreas, adherent, top dose 10.24 µM)”, the AUC stood at 0.971 and the 50% inhibitory concentration (IC50) was more than 10.2 µM.
The corresponding values for “KP-2 (pancreas, adherent, top dose 20 µM)” are 0.984 and more than 20 µM.
The matching figures for “KP-3 (pancreas, adherent, top dose 20 µM)”: 0.979 and more than 20 µM.
With “KP-4 (pancreas, adherent, top dose 20 µM)”, the AUC turned out to be 0.928 and the half-maximal inhibitory concentration (IC50) was more than 20 µM.
The matching figures for “KP-N-YN (neuroblastoma, adherent, top dose 20 µM)”: 0.958 and more than 20 µM.
The corresponding values for “KP-N-YS (neuroblastoma, adherent, top dose 20 µM)” are 0.765 and 8.36 µM.
Turning to KS-1 (glioma, adherent, top dose 20 µM), the AUC worked out at 0.819 and the IC50 is 15.2 µM.
The corresponding values for “KU812 (chronic myeloid leukaemia, suspension, top dose 20 µM)” are 0.885 and 18.5 µM.
For “KU-19-19 (bladder, adherent, top dose 20 µM)”, the AUC turned out to be 0.982 and the 50% inhibitory concentration (IC50) is more than 20 µM.
The corresponding values for “KURAMOCHI (ovary, adherent, top dose 20 µM)” are 0.984 and more than 20 µM.
The corresponding values for “KY821 (leukaemia, suspension, top dose 20 µM)” are 0.976 and more than 20 µM.
The matching figures for “KYAE-1 (oesophagus, suspension, top dose 20 µM)”: 0.942 and more than 20 µM.
“KYM-1 (rhabdomyosarcoma, adherent, top dose 20 µM)”: the AUC turned out to be 0.991 and the IC50 was more than 20 µM.
The corresponding values for “KYSE-50 (oesophagus, adherent, top dose 20 µM)” are 0.974 and more than 20 µM.
With “KYSE-70 (oesophagus, adherent, top dose 20 µM)”, the AUC amounted to 0.982 and the IC50 is more than 20 µM.
The matching figures for “KYSE-140 (oesophagus, adherent, top dose 20 µM)”: 0.917 and more than 20 µM.
The matching figures for “KYSE-150 (oesophagus, adherent, top dose 20 µM)”: 0.96 and more than 20 µM.
The matching figures for “KYSE-180 (oesophagus, adherent, top dose 20 µM)”: 0.967 and more than 20 µM.
Turning to “KYSE-220 (oesophagus, adherent, top dose 20 µM)”, the AUC was found to be 0.982 and the IC50 was more than 20 µM.
The corresponding values for “KYSE-270 (oesophagus, adherent, top dose 20 µM)” are 0.971 and more than 20 µM.
The corresponding values for “KYSE-410 (oesophagus, adherent, top dose 20 µM)” are 0.961 and more than 20 µM.
With “KYSE-450 (oesophagus, adherent, top dose 20 µM)”, the AUC is 0.94 and the IC50 is more than 20 µM.
The matching figures for “KYSE-510 (oesophagus, adherent, top dose 20 µM)”: 0.986 and more than 20 µM.
The corresponding values for “KYSE-520 (oesophagus, adherent, top dose 20 µM)” are 0.981 and more than 20 µM.
“L-363 (myeloma, suspension, top dose 20 µM)”: the AUC is 0.945 and the concentration for half-maximal inhibition (IC50) was more than 20 µM.
The matching figures for “L-428 (Hodgkin lymphoma, suspension, top dose 20 µM)”: 0.989 and more than 20 µM.
The matching figures for “L-540 (Hodgkin lymphoma, suspension, top dose 20 µM)”: 0.957 and more than 20 µM.
The corresponding values for “L-1236 (Hodgkin lymphoma, suspension, top dose 20 µM)” are 0.978 and more than 20 µM.
On to “LAMA-84 (chronic myeloid leukaemia, suspension, top dose 20 µM)”, for which the AUC was 0.921 and the IC50 was more than 20 µM.
The corresponding values for “LAN-6 (neuroblastoma, adherent, top dose 20 µM)” are 0.985 and more than 20 µM.
“LB373-MEL-D (melanoma, adherent, top dose 20 µM)”: the AUC was 0.989 and the IC50 was more than 20 µM.
Take “LB647-SCLC (small cell lung carcinoma, semi-adherent, top dose 20 µM)”: the AUC was found to be 0.965 and the IC50 is more than 20 µM.
The corresponding values for “LB771-HNC (head and neck, adherent, top dose 20 µM)” are 0.973 and more than 20 µM.
As for “LB831-BLC (bladder, adherent, top dose 20 µM)”, the AUC came out at 0.894 and the 50% inhibitory concentration (IC50) was more than 20 µM.
The matching figures for “LB996-RCC (kidney, adherent, top dose 20 µM)”: 0.978 and more than 20 µM.
Consider “LB1047-RCC (kidney, adherent, top dose 20 µM)”, for which the AUC was 0.976 and the half-maximal inhibitory concentration (IC50) was more than 20 µM.
The corresponding values for “LB2241-RCC (kidney, adherent, top dose 20 µM)” are 0.983 and more than 20 µM.
The matching figures for “LB2518-MEL (melanoma, adherent, top dose 20 µM)”: 0.97 and more than 20 µM.
The corresponding values for “LC4-1 (lymphoblastic leukaemia, suspension, top dose 20 µM)” are 0.932 and more than 20 µM.
For “LC-1-sq (lung squamous cell carcinoma, adherent, top dose 20 µM)”, the AUC amounted to 0.971 and the IC50 was more than 20 µM.
The corresponding values for “LC-2-ad (lung adenocarcinoma, adherent, top dose 20 µM)” are 0.977 and more than 20 µM.
The corresponding values for “LCLC-97TM1 (large cell lung carcinoma, adherent, top dose 20 µM)” are 0.982 and more than 20 µM.
The corresponding values for “LCLC-103H (large cell lung carcinoma, adherent, top dose 20 µM)” are 0.974 and more than 20 µM.
Turning to “LK-2 (lung squamous cell carcinoma, adherent, top dose 20 µM)”, the AUC was 0.955 and the half-maximal inhibitory concentration (IC50) was more than 20 µM.
The matching figures for “LN-18 (glioma, adherent, top dose 20 µM)”: 0.994 and more than 20 µM.
The matching figures for “LN-229 (glioma, adherent, top dose 20 µM)”: 0.983 and more than 20 µM.
Consider “LN-405 (glioma, adherent, top dose 20 µM)”, for which the AUC is 0.969 and the 50% inhibitory concentration (IC50) was more than 20 µM.
As for “LNCaP-Clone-FGC (prostate, adherent, top dose 20 µM)”, the AUC is 0.955 and the IC50 is more than 20 µM.
The corresponding values for “LNZTA3WT4 (glioma, adherent, top dose 20 µM)” are 0.98 and more than 20 µM.
The corresponding values for “LOU-NH91 (lung squamous cell carcinoma, adherent, top dose 20 µM)” are 0.967 and more than 20 µM.
The matching figures for “LOUCY (T-cell lymphoblastic leukaemia, suspension, top dose 20 µM)”: 0.768 and 6.18 µM.
“LOXIMVI (melanoma, semi-adherent, top dose 20 µM)”: the AUC was 0.983 and the half-inhibitory concentration (IC50) is more than 20 µM.
The corresponding values for “LP-1 (myeloma, suspension, top dose 20 µM)” are 0.979 and more than 20 µM.
Regarding “LS-123 (large intestine, adherent, top dose 20 µM)”, the AUC was determined as 0.975 and the IC50 was more than 20 µM.
The corresponding values for “LS-180 (large intestine, adherent, top dose 20 µM)” are 0.981 and more than 20 µM.
The matching figures for “LS-411N (large intestine, adherent, top dose 20 µM)”: 0.837 and 17.7 µM.
The corresponding values for “LS-513 (large intestine, adherent, top dose 20 µM)” are 0.987 and more than 20 µM.
In the case of “LS-1034 (large intestine, adherent, top dose 20 µM)”, the AUC is 0.985 and the concentration for half-maximal inhibition (IC50) is more than 20 µM.
The corresponding values for “LU-65 (large cell lung carcinoma, suspension, top dose 20 µM)” are 0.968 and more than 20 µM.
The corresponding values for “LU-99A (large cell lung carcinoma, adherent, top dose 20 µM)” are 0.98 and more than 20 µM.
The matching figures for “LU-134-A (small cell lung carcinoma, suspension, top dose 20 µM)”: 0.968 and more than 20 µM.
With “LU-135 (small cell lung carcinoma, suspension, top dose 20 µM)”, the AUC came out at 0.899 and the IC50 was determined as 17.8 µM.
The corresponding values for “LU-139 (small cell lung carcinoma, suspension, top dose 20 µM)” are 0.841 and more than 20 µM.
The matching figures for “LU-165 (small cell lung carcinoma, suspension, top dose 20 µM)”: 0.962 and more than 20 µM.
The corresponding values for “LXF-289 (lung adenocarcinoma, adherent, top dose 20 µM)” are 0.918 and more than 20 µM.

These data come from the supplement of paper PMC4967469.
